The other results are listed elsewhere or left out.

The target of the test is T1, OsWOX13 (Oryza sativa, UniProt Q5QMM3 1-267).
T1 sequence: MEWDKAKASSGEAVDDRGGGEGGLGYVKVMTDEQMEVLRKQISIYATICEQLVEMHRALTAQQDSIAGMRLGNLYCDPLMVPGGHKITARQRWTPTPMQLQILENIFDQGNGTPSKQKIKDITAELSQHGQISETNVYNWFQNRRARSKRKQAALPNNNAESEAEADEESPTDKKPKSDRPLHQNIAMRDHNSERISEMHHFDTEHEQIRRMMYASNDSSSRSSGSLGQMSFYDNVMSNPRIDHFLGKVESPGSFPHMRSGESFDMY
Nature of the test: protein-binding microarray (RPBM); PBS, 2% BSA, 51.3 ng/ul salmon testes DNA, 50 uM zinc acetate, 200 nM TF, 25 C, 1 h; high values mean tight binding. The settings on record: protein: recombinant; tags: N-terminal polyhistidine and DsRed monomer fusion (pET32a); label: CyDye5-dUTP incorporated in the synthesized complementary strand; 3' TTTTT single-stranded linker to array surface; dsDNA, one strand shown. An outline of the steps: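 In PBS with 2% BSA, salmon testes DNA and 50 µM zinc acetate, 200 nM protein was incubated on a custom Agilent array at 25 °C for 1 h and then washed off. The array had been made double-stranded by primer extension with Cy5-dUTP and blocked with 2% BSA. The proteins were transcription factors fused N-terminally to polyhistidine and DsRed, expressed in E. coli BL21-CodonPlus and purified on Ni–NTA. The binding signal is per-feature fluorescence intensity (arbitrary units) from an Axon 4000B scanner.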
As for “AGTTATTGATGGTTAAATTTATAAAAGTTTAATCTCAACCCGGAGTCACCTAGTGCAG”, the binding signal was 19800 fluorescence intensity (a.u.). As for “GGATAATTTACTACTCCCTCTGTCCCAAAATATAAGAACCCGGAGTCACCTAGTGCAG”, the binding signal is 21100 fluorescence intensity (a.u.).

For “TGTGATTATTGCCAGCGAATCTCCAACTCTGAAACTCTCACGGAGTCACCTAGTGCAG”, the binding signal was 28700 fluorescence intensity (a.u.). Next, “AATAATTAATGAATACAATCTTAGTCGAATCAGCTAGAATCGGAGTCACCTAGTGCAG”: 15600 fluorescence intensity (a.u.); “TTCTGATTTCTTTCATGTACAAGTAGATGCAGGCGCCACCCGGAGTCACCTAGTGCAG”: 9600 fluorescence intensity (a.u.). The figure for “GGGACTGAGAGGGTAATTGAAGGTATGATGGAGAAAATTTCGGAGTCACCTAGTGCAG” is 13600 fluorescence intensity (a.u.).

On to “ATATTACATACCAATTGACCGATTGAAAATGGAGATCGCCCGGAGTCACCTAGTGCAG”, for which the binding signal was 5350 fluorescence intensity (a.u.). With “TTTATTAATTTGTATGTGAAACTGACATGTGGGTCCCACGCGGAGTCACCTAGTGCAG”, the binding signal was 23600 fluorescence intensity (a.u.). On to “ATATTGATGTTAATGAATCTAGACATATCAATATAAATGTCGGAGTCACCTAGTGCAG”, for which the binding signal was 4730 fluorescence intensity (a.u.). Next, “CATGGGTAATTTACTAGCAATATAAAAGGACAAATATACGCGGAGTCACCTAGTGCAG”: 3280 fluorescence intensity (a.u.); “GTTAGATGGATGGAGTAATAAATTAACTCTAAAATTAACTCGGAGTCACCTAGTGCAG”: 7570 fluorescence intensity (a.u.). The figure for “ATTGAGGCATGTCAATTAGATCCTGTCAATAGTCGAGGGACGGAGTCACCTAGTGCAG” is 7430 fluorescence intensity (a.u.); for “ATGTTATAATTTCTAGATGATACGGCAATTTACTACACTGCGGAGTCACCTAGTGCAG” it is 4780 fluorescence intensity (a.u.). The figure for “TCAATTAATTAAGCAAACGGCTTGCAACCTCTGATTGCCACGGAGTCACCTAGTGCAG” is 22700 fluorescence intensity (a.u.). As to “TTGCTGAGGTATTCCCAAATTGATTGTCATCTAACTGGTGCGGAGTCACCTAGTGCAG”, the binding signal is 11000 fluorescence intensity (a.u.).

Turning to “GCTCTCAAAATAATTTGAATCATAGACATGCAAAATGGGTCGGAGTCACCTAGTGCAG”, the binding signal was 3770 fluorescence intensity (a.u.). The figure for “ACTAATTTAACGAGAGTATTTTCTATATACAAATACAACACGGAGTCACCTAGTGCAG” is 12000 fluorescence intensity (a.u.); for “ACTGATGATGTGAGATGATATGATACAGACGGCAATGCACCGGAGTCACCTAGTGCAG” it is 11900 fluorescence intensity (a.u.). In the case of “ATTCCAATTGATTTTAGTTAGTTTTCATACATAGTTAACACGGAGTCACCTAGTGCAG”, the binding signal was 10900 fluorescence intensity (a.u.).

On to “ATCATTTATAGTCAATTTAATAGCCAATTCATACAATAGTCGGAGTCACCTAGTGCAG”, for which the binding signal is 5170 fluorescence intensity (a.u.).

For the sequence “ACACAAGTCAGTCCAGAGTGATTGTTTATGCTGGTAATGCCGGAGTCACCTAGTGCAG”, the binding signal is 5710 fluorescence intensity (a.u.). The figure for “AATTGAATAATCTAATTTAATTTCTATATTGCAGCAACTTCGGAGTCACCTAGTGCAG” is 13900 fluorescence intensity (a.u.). The figure for “ACATCATCTTAAATTTGTAGTTTTATTTATGATAAACAGACGGAGTCACCTAGTGCAG” is 3340 fluorescence intensity (a.u.); for “CAACTTAAAATTAAAATTTGACATCAGTATATATATACACCGGAGTCACCTAGTGCAG” it is 6320 fluorescence intensity (a.u.). Take “CATTGTAGAAACCAATCACTGCAGGGAACTCGAGTAAACTCGGAGTCACCTAGTGCAG”: the binding signal was 3730 fluorescence intensity (a.u.).

Regarding “GTTGATATGTGAAATAAAATTTTACCTTGTAAAATATGACCGGAGTCACCTAGTGCAG”, the binding signal was 3570 fluorescence intensity (a.u.). The figure for “TCGGCCCAATCAATTGCGTTGGTTATGAATGGCCCATGGACGGAGTCACCTAGTGCAG” is 13500 fluorescence intensity (a.u.); for “ACGTCCTATCATGAATTTTGCCTTTGTCGTCCTGCAACCACGGAGTCACCTAGTGCAG” it is 3160 fluorescence intensity (a.u.). On to “AAGAAAATTGTTAATTTCGAATTTGCAGTCCAGCACCTTTCGGAGTCACCTAGTGCAG”, for which the binding signal was 9810 fluorescence intensity (a.u.). The figure for “GCCTCTTAATTAACTAATTAAGGTGCAATTGAGCTGGGCTCGGAGTCACCTAGTGCAG” is 50300 fluorescence intensity (a.u.); for “TACAATAATTAGCATGTAAAGACAAGTGCTTAATACTACCCGGAGTCACCTAGTGCAG” it is 13800 fluorescence intensity (a.u.). The figure for “GGGTATATAGTAAATTTCAATCATGGTGCCCGGGCACCATCGGAGTCACCTAGTGCAG” is 4560 fluorescence intensity (a.u.); for “AAAATATCAATTGGCCATAATCATTGTAAGCACTATACAGCGGAGTCACCTAGTGCAG” it is 7780 fluorescence intensity (a.u.). Next, “CCTCGTCAATCCTCTACATCCTGCGTTTCTTCCCCGTATACGGAGTCACCTAGTGCAG”: 3660 fluorescence intensity (a.u.).

As to “TAAGTGATTTACTGCTAGCTTGTACCTTTTCTGTTTGTAACGGAGTCACCTAGTGCAG”, the binding signal was 11300 fluorescence intensity (a.u.).

For the sequence “GCGAAATTGGCACGTCGCAAAGTTTGCTGATGCATGGGAGCGGAGTCACCTAGTGCAG”, the binding signal was 12700 fluorescence intensity (a.u.).

Consider “CACATGACGGACTGAATGAATTTCTGAAATATGAAGTTCTCGGAGTCACCTAGTGCAG”, for which the binding signal was 4000 fluorescence intensity (a.u.). Next, “AATTTCAATCAAACTTTCAATTTTGACGTGAACTAAACACCGGAGTCACCTAGTGCAG”: 25900 fluorescence intensity (a.u.); “TAAACCTAAATTTCCACTAAAATTTATATTTTAAAATCTCCGGAGTCACCTAGTGCAG”: 4090 fluorescence intensity (a.u.). Next, “TTAAAGTCTAATTACGCCATGATTTGACAATGTGGTGCTACGGAGTCACCTAGTGCAG”: 30000 fluorescence intensity (a.u.); “CTGTATTTGACTGTTACTGCTTTTGGATTTTGTTTCATTTCGGAGTCACCTAGTGCAG”: 6280 fluorescence intensity (a.u.); “ATGACTGACGATTCGATCCACCAGATCAGGTGATCATCGACGGAGTCACCTAGTGCAG”: 8640 fluorescence intensity (a.u.).

For the origin of these results see PMC7819943, “Rice protein-binding microarrays: a tool to detect cis-acting elements near promoter regions in rice”.
